This is one part of the list.
test system: PF3D7_0420300 AP2 domain 1 (GST-tagged); experiment: gcPBM binding intensity (ln(normalized median fluorescence intensity)); higher = stronger DNA binding
How it was run: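 Binding intensity is the highest Masliner-normalised natural-log median intensity over replicate spots in either probe orientation. To obtain it, GST-tagged P. falciparum DNA-binding domains made in E. coli were incubated for 1 h on an Agilent 4 × 180k array of primer-extended double-stranded 36-bp intergenic genomic probes plus negative controls. Detection used Alexa488 anti-GST antibody with scanning at 488 nm.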

Sequence	gcPBM binding intensity (ln)
CAAACACCCAAACACACACACACATACATACATACA [CACACA_site8044]	10.2
TTTTTTTTTTTTTGTGTGCACCTTATTTTTTTGTAT [GTGCAC_site9617]	9.62
ATAGTAATGCATAAATATATATTATATATATATATA [XGTACX_negctrl_site576]	9.27
CTATTGTTAAATATAATACACACGTTTTTAAAAATA [CACACA_site2183]	9.22
GTATATATTTTGTATTCATTTGTCACATATAATAGA [CACACA_negctrl_site506]	9.43
TATATTATTTATATTTGTACACAGCGATATGAAATA [XGTACX_site987]	9.21
ATATTATTATAAACTTCACACATTTTATGGGTTTTT [CACACA_site4631]	9.29
CGCATATTTTATGTTTGTACTCATATGAATATCATA [XGTACX_site4717]	9.21
CATAAGCACAAGCACAAGCACACATTTATATATATA [CACACA_site882]	9.4
TTGTATATATTAAATTGTACTTATTTTTTGTATATA [XGTACX_site3251]	9.21
TATAAACATATAAAAAGTACATACCAATTAATATTA [XGTACX_site967]	9.31
GGATAAAATGCTACGAGTACATAAGCATTTTTCCCT [XGTACX_site7796]	9.18
TCTTTTAAAAATATAAAAAGGAATATATAAAAATGT [CACACA_negctrl_site332]	9.12
TATTCTGTGTATAAAAGTACAAATATTTAAATGTAT [XGTACX_site8234]	9.11
AATATATTCATCATATCAATATTGTCAAGCAAACGA [TGCATGCA_negctrl_site37]	9.2
GAATTTATTTTATTTTCACACACAAAAATAAATATC [CACACA_site8762]	9.48
TTCTTTAATAAAATAATCTCAAAGAAAATTTTTTCT [GTGCAC_negctrl_site589]	8.56
AATAAATAGATATATACACACATATATGTGTACATA [CACACA_site7476]	9.78
TTATCCATTTTAATCACACATACTTTACTTTGGAAC [CACACA_site5584]	9.23
TGGAAAAATAGGCACACACACATATATACCTATATA [CACACA_site4843]	9.91
TTTTTTTTTTTTGAGTGTACTAAAATATTACCTTTT [XGTACX_site646]	8.97
TGAATATTTACTTTAGCACACAATTTGTATTTGATT [CACACA_site960]	9.44

Sequence	gcPBM binding intensity (ln)
AATATTATAAATGATACACACTTAAAATACACCCAC [CACACA_site5498]	9.83
AATATATTTTAATACACACACACATATATATATATA [CACACA_site5969]	9.9
TTTTTTTTAAATATCACACACATATAACATATTCTA [CACACA_site7687]	9.37
ATATGTATATAAATGTGTACTTATAAATATATATAT [XGTACX_site3250]	9.41
GAAATAGAGAAACACACACACATATATTTATGTATT [CACACA_site3967]	9.99
ATAAAAATAAAAAGATGTACGTATTTTTTTTTTTTT [XGTACX_site5329]	9.23
TATAAATAAATGCGTACACACTAATAAAAAAAAAAA [CACACA_site4630]	9.43
CATTATTATGATAGTTGTACAATTTTTATAAAAAAT [XGTACX_site4411]	9.17
CTTCCTTAGGAATGTACACACATATATAATATGTTG [CACACA_site461]	9.41
TACAGACAGAAATGCACACACATATTTATATTTATA [CACACA_site7139]	9.75
TAATATTAATCCTAGTGTACATTAATTTATATGTAT [XGTACX_site3583]	9.22
ATTATATATATATAAACACACAAATATTTTTATATA [CACACA_site5005]	9.42
ACCTATATAAGTTATACACACAAATATAGATATATA [CACACA_site7356]	9.56
ATTTAAGATTTAATCACACACATATAGATTATAGAC [CACACA_site7383]	9.77
ATGAAGAAGTGTAAATGTACATTTTATGTAGAACAA [XGTACX_site6925]	9.23
TTTACAGAAAGTTACATACACACTAATATTTACACC [CACACA_site1009]	9.57
TATAAGAGGATATATACACACAAAAATATGTACAGT [CACACA_site6885]	9.91
TTTATATGTATTAAGTGTACACATATAATGTGTTTG [XGTACX_site6629]	9.29
TTATTTTTTTTTTATTGTACTAGGAAAATTTCGATA [XGTACX_site702]	8.88
TTTGACAAATTATTGTGTACACAATATTATTATATA [XGTACX_site8320]	9.09
ACAAAATGTAGATATTGTACATATTGTAGATATTGT [XGTACX_site7619]	9.32
AATAAAAAAGAATATACACACATAAATATAAAATAT [CACACA_site683]	9.9

Source: the supplement of paper PMC11417369
